Data on 44 compounds can be found in publication PMC4336329 (PLoS ONE, 2015).

Structures are written as SMILES. The campaign covered roughly 310,000 compounds. About 2,200 (0.71%) showed an effect of 50% or more. The effect is printed as a negative number. The list shows a part of the results.

Sequence of human ether-à-go-go-related gene (hERG) potassium channel (Q12809 whole entry, looked up): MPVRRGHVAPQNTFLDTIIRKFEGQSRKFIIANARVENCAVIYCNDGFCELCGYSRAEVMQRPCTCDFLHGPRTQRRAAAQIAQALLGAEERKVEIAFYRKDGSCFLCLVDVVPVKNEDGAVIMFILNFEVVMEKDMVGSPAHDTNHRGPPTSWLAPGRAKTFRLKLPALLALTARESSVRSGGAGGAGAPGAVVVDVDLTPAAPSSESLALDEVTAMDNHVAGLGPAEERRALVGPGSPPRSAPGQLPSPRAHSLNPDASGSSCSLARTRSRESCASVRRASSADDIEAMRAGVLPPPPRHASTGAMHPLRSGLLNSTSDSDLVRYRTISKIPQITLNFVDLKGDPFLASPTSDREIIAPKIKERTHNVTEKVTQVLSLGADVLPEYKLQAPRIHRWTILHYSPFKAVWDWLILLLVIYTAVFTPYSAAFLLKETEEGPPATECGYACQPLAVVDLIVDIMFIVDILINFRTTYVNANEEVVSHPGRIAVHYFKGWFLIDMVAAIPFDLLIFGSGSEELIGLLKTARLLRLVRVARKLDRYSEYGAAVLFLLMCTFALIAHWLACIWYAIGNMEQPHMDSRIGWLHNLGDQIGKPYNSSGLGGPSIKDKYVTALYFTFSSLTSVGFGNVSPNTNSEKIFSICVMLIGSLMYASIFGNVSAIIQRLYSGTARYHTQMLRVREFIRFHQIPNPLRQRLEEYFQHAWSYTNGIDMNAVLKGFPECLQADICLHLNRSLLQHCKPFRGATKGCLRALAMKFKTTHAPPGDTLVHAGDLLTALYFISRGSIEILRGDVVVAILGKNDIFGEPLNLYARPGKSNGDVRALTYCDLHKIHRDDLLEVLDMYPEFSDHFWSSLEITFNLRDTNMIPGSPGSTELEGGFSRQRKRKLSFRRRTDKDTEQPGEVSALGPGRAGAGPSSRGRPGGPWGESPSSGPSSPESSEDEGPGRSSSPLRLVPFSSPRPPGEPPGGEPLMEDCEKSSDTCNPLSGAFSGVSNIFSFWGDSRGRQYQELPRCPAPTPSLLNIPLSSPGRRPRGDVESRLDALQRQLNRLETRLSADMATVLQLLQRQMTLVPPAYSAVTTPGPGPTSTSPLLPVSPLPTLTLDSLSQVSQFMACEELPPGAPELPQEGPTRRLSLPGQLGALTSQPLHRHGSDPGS

This test concerns the target human ether-à-go-go-related gene (hERG) potassium channel (human, UniProt Q12809). The test can be described thus: primary screen, population patch clamp on CHO cells stably expressing hERG.
For `COc1ccc(-c2cc(C(=O)N3CCCCCC3)no2)cc1`, the “hERG current change (%, negative = inhibition) at 1uM” value is recorded as 12.9%.

For `C=COCCn1c(-c2nonc2N)nc2ccccc21`, the “hERG current change (%, negative = inhibition) at 1uM” value is recorded as 9.71%.

On to `COc1ccc(S(=O)(=O)N(CC(=O)N2CCCC2)Cc2ccccc2)cc1`, for which the “hERG current change (%, negative = inhibition) at 1uM” value is -11.6%.

With `O=C(N/N=C/c1cc(Br)c(Br)o1)C(O)c1ccccc1` (centres unmarked), the “hERG current change (%, negative = inhibition) at 1uM” value was determined as 3.32%.

On to `Cc1ccc(C(=O)c2c3ccc(C(F)(F)F)cc3[n+]([O-])n2CCCC(N)=O)cc1`, for which the “hERG current change (%, negative = inhibition) at 1uM” value was -39%.

In the case of `COc1ccc(-c2noc(CCC(=O)NCCCN3CCN(c4ccc(F)cc4)CC3)n2)cc1`, the “hERG current change (%, negative = inhibition) at 1uM” value was -30.1%.

In the case of `CCC1(CC)NC(=O)N(CC(=O)N2N=C(c3ccc(Cl)cc3)CC2c2ccco2)C1=O` (centres unmarked), the “hERG current change (%, negative = inhibition) at 1uM” value turned out to be 1.55%.

Take `O=C(Cn1cnnn1)Nc1cccc([N+](=O)[O-])c1`: the “hERG current change (%, negative = inhibition) at 1uM” value was 7.12%.

Turning to `CCc1ccc(NCc2nc(-c3ccccc3)no2)cc1`, the “hERG current change (%, negative = inhibition) at 1uM” value is on record as 10.4%.

With `O=C(CN1C(=O)C2CCCCC2C1=O)Nc1nc(-c2ccc(F)cc2)cs1` (centres unmarked), the “hERG current change (%, negative = inhibition) at 1uM” value came out at 10.8%.

Consider `CC(=O)c1sc(NC(=O)CCCOc2ccccc2C)nc1C`, for which the “hERG current change (%, negative = inhibition) at 1uM” value was determined as 18.8%.

On to `Cc1nc(CSc2nnc3scc(-c4ccc(Cl)cc4)n23)cs1`, for which the “hERG current change (%, negative = inhibition) at 1uM” value turned out to be 2.22%.

On to `CS(=O)(=O)N(CC(=O)N1CCN(c2cccc(Cl)c2)CC1)c1ccccc1`, for which the “hERG current change (%, negative = inhibition) at 1uM” value came to 7.53%.

As for `CCNc1ccc(C(=O)OCC)cc1NC(=O)c1cccc(S(=O)(=O)N2CCOCC2)c1`, the “hERG current change (%, negative = inhibition) at 1uM” value is on record as 10.8%.

Consider `O=C(CSc1ccccc1C(=O)O)NC12CC3CC(CC(C3)C1)C2`, for which the “hERG current change (%, negative = inhibition) at 1uM” value was found to be 16.2%.

For the compound `CC(C)Oc1ccc(CNC(=O)Cn2c(=O)c3cccn3c3cccnc32)cc1`, the “hERG current change (%, negative = inhibition) at 1uM” value came to 6.17%.

Turning to `COc1cc(Cl)c(C)cc1NC(=O)c1ccc2c(c1)OCO2`, the “hERG current change (%, negative = inhibition) at 1uM” value came to 15.4%.

Turning to `COc1ccc(Cn2cnc3c([N+](=O)[O-])c(C)c(C)cc32)cc1`, the “hERG current change (%, negative = inhibition) at 1uM” value was found to be 4.42%.

For `CCOC(=O)c1[nH]c2ccccc2c1NC(=S)Nc1cccc(C)c1`, the “hERG current change (%, negative = inhibition) at 1uM” value is 4.71%.

As for `COc1ccc2c(c1)CC1(CN2C)C(=O)NC(=O)N(CCc2ccccc2)C1=O` (centres unmarked), the “hERG current change (%, negative = inhibition) at 1uM” value was -6.39%.

Regarding `O=C(COc1ccccc1)N1c2ccccc2Sc2ccccc21`, the “hERG current change (%, negative = inhibition) at 1uM” value was 9.48%.

With `CCOC(=O)[C@H]1[C@H]2COc3cc(OC)ccc3[C@@H]2N2C(=O)c3ccc(F)cc3NC(=O)[C@@]12C`, the “hERG current change (%, negative = inhibition) at 1uM” value is given as 13.1%.

For `CN1CCCN(C(=O)c2ccc(Cl)cc2)CC1`, the “hERG current change (%, negative = inhibition) at 1uM” value is recorded as 11.7%.

As to `Cc1ccc(-c2csc3ncnc(Sc4nnc(CN5CCCCCC5=O)o4)c23)cc1`, the “hERG current change (%, negative = inhibition) at 1uM” value was -2.37%.

As to `CCN(c1ccccc1)S(=O)(=O)c1ccc(C(=O)NCCc2ccc(S(N)(=O)=O)cc2)cc1`, the “hERG current change (%, negative = inhibition) at 1uM” value is reported as 15.4%.

In the case of `O=C(CCS(=O)(=O)c1ccc(F)cc1)N1CCN(c2ccccc2)CC1`, the “hERG current change (%, negative = inhibition) at 1uM” value was determined as 4.65%.

Consider `CCCNc1cc(C)c(C#N)c2nc3ccccc3n12`, for which the “hERG current change (%, negative = inhibition) at 1uM” value turned out to be 13.9%.

Turning to `CCOc1ccccc1NC(=O)C1CCN(c2ccc(S(=O)(=O)N3CCCC3)cc2)CC1`, the “hERG current change (%, negative = inhibition) at 1uM” value is reported as -4.79%.

For the compound `COc1cc(C2N(C)C(=O)c3ccccc3N2C)ccc1O` (centres unmarked), the “hERG current change (%, negative = inhibition) at 1uM” value was found to be 15.9%.

Consider `COc1ccc2nc(/C=N/NC(=O)CCNC(=O)OC(C)(C)C)ccc2c1`, for which the “hERG current change (%, negative = inhibition) at 1uM” value was -0.945%.

For `N=C1S/C(=C\c2ccc(O)cc2)C(=O)N1c1ccc(F)cc1`, the “hERG current change (%, negative = inhibition) at 1uM” value was 5.7%.

On to `CCOc1nc(-c2ccccc2)ccc1-c1noc(-c2cccs2)n1`, for which the “hERG current change (%, negative = inhibition) at 1uM” value amounted to 3.81%.

For `CCn1c(C)nc2cc(S(=O)(=O)C(F)(F)C(F)C(F)(F)F)ccc21` (centres unmarked), the “hERG current change (%, negative = inhibition) at 1uM” value worked out at 12.8%.

With `O=C(c1ccco1)N1CCN(Cc2nc(-c3cccs3)no2)CC1`, the “hERG current change (%, negative = inhibition) at 1uM” value is on record as 2.22%.

Take `CN1CCC(=O)N([C@H](CSc2ccccc2)c2ccccc2)CC1`: the “hERG current change (%, negative = inhibition) at 1uM” value is given as -46.4%.

In the case of `COc1ccc(C(=O)N/C(=C/c2cccs2)C(=O)NC(C)(C)C)cc1OC`, the “hERG current change (%, negative = inhibition) at 1uM” value is 10.1%.

In the case of `COc1ccc(-c2cc(C(=O)N3CCc4ccccc4C3)no2)cc1`, the “hERG current change (%, negative = inhibition) at 1uM” value came out at 5.04%.

As to `Cc1ccccc1N1CCN(C2CCCN(C(=O)c3cc[n+]([O-])cc3)C2)CC1` (centres unmarked), the “hERG current change (%, negative = inhibition) at 1uM” value is reported as 12.3%.

Regarding `O=C(NC(C(=O)N/N=C/c1cc([N+](=O)[O-])ccc1O)c1n[nH]c(=O)c2ccccc12)c1ccccc1` (centres unmarked), the “hERG current change (%, negative = inhibition) at 1uM” value worked out at 15.5%.

Take `O=C(NCCNS(=O)(=O)c1ccc(C(F)(F)F)cc1)N1CCOCC1`: the “hERG current change (%, negative = inhibition) at 1uM” value worked out at 10.5%.

Turning to `COC(=O)c1sccc1NC(=O)Nc1ccc(OC)cc1OC`, the “hERG current change (%, negative = inhibition) at 1uM” value is on record as -2%.

With `Cn1c(SCC(=O)NC(=O)c2cccc([N+](=O)[O-])c2)nnc1-c1ccc(F)cc1`, the “hERG current change (%, negative = inhibition) at 1uM” value was -3.7%.

As for `CC1=NCCN1S(=O)(=O)c1ccccc1[N+](=O)[O-]`, the “hERG current change (%, negative = inhibition) at 1uM” value was found to be 8.12%.

On to `ClCc1csc(-c2ccc(Cl)cc2)n1`, for which the “hERG current change (%, negative = inhibition) at 1uM” value worked out at 2.95%.
